Drawing on PMC11272940, “UNC-45 assisted myosin folding depends on a conserved FX3HY motif implicated in Freeman Sheldon Syndrome” (Nature Communications, 2024), this text covers binding for three molecules.

The target in test [1] is T1, 547–588 myosin peptide (MHC-B) (C. elegans, UniProt P02566 547-588).
T1 construct: also called native peptide; identified myosin ligand; source: synthetic peptide
T1 peptide (looked up): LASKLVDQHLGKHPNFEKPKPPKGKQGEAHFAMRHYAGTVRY
Nature of the test: fluorescence polarisation; 2 μM N-terminally fluorescein-labelled peptide; UNC-45 from 180 μM (UNC-45B from 170 μM) diluted 1:1; 25 mM Tris pH 8.0, 150 mM NaCl; both purified. In general terms: In fluorescence polarisation assays a small probe gives low polarisation when free and higher when bound to something large.

For test [2], the target named is T2, fluorescein-labelled C. elegans myosin peptide Y582F (C. elegans).
T2 sequence (peptide, fluorescein on the N-terminus): AHFAMRHFAG
The test is described as above.

For test [3], the target named is T3, fluorescein-labelled wildtype C. elegans myosin peptide … (C. elegans).
T3 sequence (peptide, fluorescein on the N-terminus): AHFAMRHYAG
The description is as above.

In test [4] the target is T4, Full length C. elegans UNC-45 (from E. coli) (C. elegans), G5EG62.
T4 chain: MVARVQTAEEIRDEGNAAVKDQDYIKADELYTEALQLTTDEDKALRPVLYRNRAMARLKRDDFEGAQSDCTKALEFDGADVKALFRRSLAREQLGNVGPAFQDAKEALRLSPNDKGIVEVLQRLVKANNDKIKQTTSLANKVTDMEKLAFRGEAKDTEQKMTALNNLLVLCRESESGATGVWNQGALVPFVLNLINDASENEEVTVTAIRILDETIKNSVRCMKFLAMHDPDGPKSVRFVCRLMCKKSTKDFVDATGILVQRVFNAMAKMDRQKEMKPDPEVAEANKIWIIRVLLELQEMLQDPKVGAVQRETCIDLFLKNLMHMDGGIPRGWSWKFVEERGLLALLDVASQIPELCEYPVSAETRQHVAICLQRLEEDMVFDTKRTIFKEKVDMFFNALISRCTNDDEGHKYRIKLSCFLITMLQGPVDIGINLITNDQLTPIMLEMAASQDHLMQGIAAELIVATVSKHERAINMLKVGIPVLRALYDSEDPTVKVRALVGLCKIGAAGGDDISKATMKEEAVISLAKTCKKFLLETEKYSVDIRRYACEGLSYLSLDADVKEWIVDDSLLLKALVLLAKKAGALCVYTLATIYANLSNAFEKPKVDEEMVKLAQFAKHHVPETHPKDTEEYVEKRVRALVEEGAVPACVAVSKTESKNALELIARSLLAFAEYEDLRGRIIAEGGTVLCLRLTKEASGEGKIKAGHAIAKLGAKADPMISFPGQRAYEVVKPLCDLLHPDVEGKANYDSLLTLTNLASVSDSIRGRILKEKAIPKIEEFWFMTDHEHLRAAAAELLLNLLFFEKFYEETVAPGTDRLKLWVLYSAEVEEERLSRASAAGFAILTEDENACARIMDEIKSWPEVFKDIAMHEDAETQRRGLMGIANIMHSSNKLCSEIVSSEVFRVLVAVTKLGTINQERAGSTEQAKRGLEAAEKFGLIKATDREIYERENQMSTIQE
The experiment in a line: cross-linking; XL-MS of the in vitro reconstituted UFD-2:UNC-45:myo^UF complex; 0.25 mM DSS, 20 mM HEPES pH 8.0, 150 mM NaCl, 25 °C, 30 min; both purified. As to conditions: remark: other sources report otherwise.

Test [5] has as its target T5, fluorescein-labelled wildtype human MYH3 peptide … (human).
T5 sequence (peptide, fluorescein on the N-terminus): AHFSLIHYAG
The experiment in a line: fluorescence polarisation; 2 μM N-terminally fluorescein-labelled peptide; UNC-45 from 180 μM (UNC-45B from 170 μM) diluted 1:1; 25 mM Tris pH 8.0, 150 mM NaCl; both purified.

Results are given in words; binding and its absence hold for the method and conditions named. Some binding calls cover weakened binding; strength is not graded here.

B1: Full length C. elegans UNC-45 (from E. coli) (natural protein, UniProt G5EG62 1-961, looked up)
chain: MVARVQTAEEIRDEGNAAVKDQDYIKADELYTEALQLTTDEDKALRPVLYRNRAMARLKRDDFEGAQSDCTKALEFDGADVKALFRRSLAREQLGNVGPAFQDAKEALRLSPNDKGIVEVLQRLVKANNDKIKQTTSLANKVTDMEKLAFRGEAKDTEQKMTALNNLLVLCRESESGATGVWNQGALVPFVLNLINDASENEEVTVTAIRILDETIKNSVRCMKFLAMHDPDGPKSVRFVCRLMCKKSTKDFVDATGILVQRVFNAMAKMDRQKEMKPDPEVAEANKIWIIRVLLELQEMLQDPKVGAVQRETCIDLFLKNLMHMDGGIPRGWSWKFVEERGLLALLDVASQIPELCEYPVSAETRQHVAICLQRLEEDMVFDTKRTIFKEKVDMFFNALISRCTNDDEGHKYRIKLSCFLITMLQGPVDIGINLITNDQLTPIMLEMAASQDHLMQGIAAELIVATVSKHERAINMLKVGIPVLRALYDSEDPTVKVRALVGLCKIGAAGGDDISKATMKEEAVISLAKTCKKFLLETEKYSVDIRRYACEGLSYLSLDADVKEWIVDDSLLLKALVLLAKKAGALCVYTLATIYANLSNAFEKPKVDEEMVKLAQFAKHHVPETHPKDTEEYVEKRVRALVEEGAVPACVAVSKTESKNALELIARSLLAFAEYEDLRGRIIAEGGTVLCLRLTKEASGEGKIKAGHAIAKLGAKADPMISFPGQRAYEVVKPLCDLLHPDVEGKANYDSLLTLTNLASVSDSIRGRILKEKAIPKIEEFWFMTDHEHLRAAAAELLLNLLFFEKFYEETVAPGTDRLKLWVLYSAEVEEERLSRASAAGFAILTEDENACARIMDEIKSWPEVFKDIAMHEDAETQRRGLMGIANIMHSSNKLCSEIVSSEVFRVLVAVTKLGTINQERAGSTEQAKRGLEAAEKFGLIKATDREIYERENQMSTIQE
notes: UNC-45 chaperone, C. elegans; The C-terminal Strep tag is stated for the peptide spot assay; also called wildtype UNC-45; purified UNC-45; source: E. coli, purified (HisTrap or StrepTrap, SEC); not shown: Strep, C-terminal, kept
With B1, the binding entry in test [1], in test [2] and in test [3] was “binds weakly” each time.

B2: UFD-2 ubiquitin ligase (C. elegans), Q09349 1-984 (enzyme)
chain: MIEDEKAGLQPMDISDASVFFFQADVESKDFLTSLFDCEGKSDDRMLRYADAIIDVQNLNFDVSPQCLQSNIAEIITKFVLLSQDGSRRGLSRSFNFIDPDIIAGCREEDAIEFLLINFVRCHHELGKSGTSNCYKKTLESTRKAVFSVFVMIQRGYLESQLRSQHASLVFTKRLLEDTVSNVFLRTLVEYLASTDECDEDAITETFNPIFGILRSGIICQRFEDNKDEIVRQILRVMNLLLSIRLPSNGPRPLSNLLVNREDFLPTPSEKIQGREFGLMSFLGPFFSYGLESSARRPNHRVFVDCEEDARKYDGSVNTEQKLYFQRMDPIRTMLHQLMLPLASDQGSRNKTLRWIATIISTNDIRTRSHYDPSDVLCDHYMTNFLSVMYMFSEKIDLSKIIVDYPFLPSSLINISKETRLKMDESGAVAFASQFADRPDEYHFSTVCFFLTIAAQRLVIPPLMNQISEYSRHLKELKHKINALKEKLNTVSGFERAEVEKKLNYETEHWKLMSRHLLCVKTQAQDPALMASSMDFVDKQMKFILNLLCDNLDLLGDDSQLPTEVSQMFCALPEYFLEDALDFYIFAISNGMKLLMERNADWISRLTVLFTQYHYIKSPFLVSKLVRVLSSIQPPLWFNVVRLRMAQENLLMCMIKFYSDFEDNGDFYEKFNVRGNIQYMLEKMEEDMFYKGKFMDMARECGAEFIRFVNMVINDATWCIDESLSGLKSIHDVEKKMANKVEWDNTDQEIRNQDLGVYEEAKRKVKGWLGTAKSNLKLLLSITVNSPEPFRTPVLGERLAAMLNHNLSQLIGSKASELKVKDPRSYGWEPREFVSLLISIYLKLNMPAFVKYIAYDERTYSPEFFHNAIECMRKNSIVGFSQLESFEHLAEDVKKEYEAKAELEEEYDDVPEEFKDPIMDAIMVDPVKLPSGHVMDRAVIERHLLSTPNNPFNRAPLSHNELSPDSELKAKIQEWICQKRNSKK
As to B2, in test [4], the binding result is reported as “binds”.

B3: Human UNC-45B (protein, UniProt Q8IWX7 1-931)
chain: MAEVEAVQLKEEGNRHFQLQDYKAATNSYSQALKLTKDKALLATLYRNRAACGLKTESYVQAASDASRAIDINSSDIKALYRRCQALEHLGKLDQAFKDVQRCATLEPRNQNFQEMLRRLNTSIQEKLRVQFSTDSRVQKMFEILLDENSEADKREKAANNLIVLGREEAGAEKIFQNNGVALLLQLLDTKKPELVLAAVRTLSGMCSGHQARATVILHAVRIDRICSLMAVENEEMSLAVCNLLQAIIDSLSGEDKREHRGKEEALVLDTKKDLKQITSHLLDMLVSKKVSGQGRDQALNLLNKNVPRKDLAIHDNSRTIYVVDNGLRKILKVVGQVPDLPSCLPLTDNTRMLASILINKLYDDLRCDPERDHFRKICEEYITGKFDPQDMDKNLNAIQTVSGILQGPFDLGNQLLGLKGVMEMMVALCGSERETDQLVAVEALIHASTKLSRATFIITNGVSLLKQIYKTTKNEKIKIRTLVGLCKLGSAGGTDYGLRQFAEGSTEKLAKQCRKWLCNMSIDTRTRRWAVEGLAYLTLDADVKDDFVQDVPALQAMFELAKAGTSDKTILYSVATTLVNCTNSYDVKEVIPELVQLAKFSKQHVPEEHPKDKKDFIDMRVKRLLKAGVISALACMVKADSAILTDQTKELLARVFLALCDNPKDRGTIVAQGGGKALIPLALEGTDVGKVKAAHALAKIAAVSNPDIAFPGERVYEVVRPLVRLLDTQRDGLQNYEALLGLTNLSGRSDKLRQKIFKERALPDIENYMFENHDQLRQAATECMCNMVLHKEVQERFLADGNDRLKLVVLLCGEDDDKVQNAAAGALAMLTAAHKKLCLKMTQVTTQWLEILQRLCLHDQLSVQHRGLVIAYNLLAADAELAKKLVESELLEILTVVGKQEPDEKKAEVVQTARECLIKCMDYGFIKPVS
With B3, in test [5], the binding entry is listed as “binds weakly”.
